Results published in publication PMC12136788.
This is one part of the list.

T1: UNK ZnF1-3 (human, UniProt Q9C0B0 31-174)
T1 sequence: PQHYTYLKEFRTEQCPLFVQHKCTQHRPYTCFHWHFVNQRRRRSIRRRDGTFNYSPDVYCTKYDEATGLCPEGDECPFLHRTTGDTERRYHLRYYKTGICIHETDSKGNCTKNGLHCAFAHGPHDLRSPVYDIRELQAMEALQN

B1: chrX:140365796:140365797:-_ENSMUSG00000031285_ENSMUST00000033642|mus_mus|mus_mus_mus_hu_False|48_98 (ssRNA)
RNA: GGGAGUUCUACAGUCCGACGAUCCUUCUCAUUACUCAAUGCCUGCAAGGUUCUGGUUCGGUAGAAGCUACAGUGGGCGCUGUGAGUGGGACUUGGAAACCCAUUCAUCCGGGAGCCUCGCAUGUUCCUGGAUGUCUUAUCUCUCAACAGAGGAUUGAGCAUCA
B2: chr5:40767622:40767623:-_ENSG00000132356_ENST00000397128|hu_mus|hu_hu_hu_mus_False|28_28 (ssRNA)
RNA: GGGAGUUCUACAGUCCGACGAUCAUCUUUUAUUGCGGCCCUCUUCAUGGGAUCCACCUGCAGCAUAUGUUUCAAAAGGCUGAUUACUGAAGGGUUUAAGUACUGAGGGGUAUAGAAGAUCCCAUCACAUAUCUUCUUAAAAAGCAACAGAGGAUUGAGCAUCA
B3: 127655415_127657517_144_CDS_ENSMUSG00000027379_ENSMUST00000028858|mouse|control|control (ssRNA)
RNA: GGGAGUUCUACAGUCCGACGAUCUUCCCAUUCUCCAAGUGGGUCAUUACCCGUGUAGCUUUGCAUAUGGGCUUCAAACAUGCGAAAGACAUUUUCUAGGUUGUCCAUGACGAGAAAAAACGCGCAGCGGCGAAAUACCCCACCCAACAGAGGAUUGAGCAUCA
B4: chr17:65740002:65740003:+_ENSG00000130935_ENST00000581375|hu_hu|hu_hu_hu_mus_False|28_98 (ssRNA)
RNA: GGGAGUUCUACAGUCCGACGAUCAACAAAUCUUUCUCUGGAUGAAGAACAGGAAGAUUCAUAUUAAAAAAAAUAUAUAUCCAUCAAGUUAGGUGUGGUGGCCACACAGAGCUCCAGAGCACUUUGGGAGGUGGAUCUCUGAGUCAACAGAGGAUUGAGCAUCA
B5: 110412523_110415850_1321_CDS_ENSG00000138802_ENST00000265175|human|control|control (ssRNA)
RNA: GGGAGUUCUACAGUCCGACGAUCAGCUGGAGCUGGAGCAGAAGCAGGAUCAGGUUCAGGGGCGGGAUCAGGAGCAGGACUGCUUGCUGAUGAAGAAAGCAUAUCUGGGUAACUGCCUCCUUCCAGGGCAUCAUAACUGUUGGGCAACAGAGGAUUGAGCAUCA
B6: chr7:149068622:149068623:-_ENSMUSG00000025139_ENSMUST00000001950|mus_hu|mus_mus_mus_hu_False|18_28 (ssRNA)
RNA: GGGAGUUCUACAGUCCGACGAUCGUGAGGCCUCUGAGUGUGGCUUGUGGUCUGUCCUGGGUUAGAGUUGUUAAUAUCACGGAACAUACCAUCUAGAACGUUCCAGUCUGCCUGACUCAUCCACCCUCCAAUGGAGAAGAAAUCCAACAGAGGAUUGAGCAUCA
B7: chr5:143539998:143539999:-_ENSG00000145817_ENST00000274496|hu_hu|FALSE|FALSE (ssRNA)
RNA: GGGAGUUCUACAGUCCGACGAUCUUUUCAAAAGACGGAAAUCAGGGCAAAGACUCCAUAUAACAAAGCGCAAGGAUAUGCUACUAAAAGUUGCUGUCCUUCCAUGGCUAAUGCAGAAAUAAAUAUUUUGGAAGCAGAAAAACUCAACAGAGGAUUGAGCAUCA
B8: 54630568_54630688_5623_3pUTR_ENSG00000094916_ENST00000209875|human|control|control (ssRNA)
RNA: GGGAGUUCUACAGUCCGACGAUCUUAAGGUAGAGACAAUUGCUCCCCGGGCCAAACACAGAUCCCUCCAACCCCUCACUGUACCUUAGGAAAGCUGGGGUAAACUACAGAUUCAACAAAAUCUCAAUAAGAAAAUCCCAAAAACAACAGAGGAUUGAGCAUCA
B9: chr3:39121231:39121232:+_ENSG00000114742_ENST00000302313|hu_hu|motif|central (ssRNA)
RNA: GGGAGUUCUACAGUCCGACGAUCAUUGGUAUCUUUGGUUAAUAUAUGUCUCUUAUCAUUAAGAAUGUGGCACUGAAUAAUACGGGCACCCCCUUUAAUAACCUGGUCAGGUUGUGUACAAAGAGGUGUUAUAGGAUUUGUACACAACAGAGGAUUGAGCAUCA
B10: chr6:108204272:108204273:-_ENSG00000025796_ENST00000369002|hu_mus|FALSE|FALSE (ssRNA)
RNA: GGGAGUUCUACAGUCCGACGAUCUUGCUCUCUAUCAGACUCCCUGUCACUACCAUCUUCUUUCUCACUCUGAGAAUCUCUAUUGGUUUCUUCCUCUUCAGAAUCACUGCCCUUGUCAGAAAUGUCGUCUUCUUCCUCCUUUAUCAACAGAGGAUUGAGCAUCA
B11: chr6:41757443:41757444:+_ENSG00000214736_ENST00000398881|hu_mus|hu_hu_hu_mus_False|1_48 (ssRNA)
RNA: GGGAGUUCUACAGUCCGACGAUCGAACCGUGCAGAGGCAACAUCUCAGCCGACACUGGGGGAUGGGGGGGCAGUGGGGGGGGGUUCAGGGAAGGGGAGGGAGUCAACUUCAGCUGCCACUCAGGUAGGAUCUUGUGGGGCACACAACAGAGGAUUGAGCAUCA
B12: 55646187_55646307_502_5pUTR_ENSG00000115355_ENST00000336838|human|control|control (ssRNA)
RNA: GGGAGUUCUACAGUCCGACGAUCGAAGGGGAGUAAAAAUUUCGUUCUCCAUUUUACAGAGUAUGUAUUUGAAAAAAGGAACUACCACAAAAAUACGCCUAGGGAAUUGGUCACUAAACGUGGAAGUAAGUAGAAAUCAAUGAACAACAGAGGAUUGAGCAUCA
B13: chr3:10015032:10015033:+_ENSMUSG00000027533_ENSMUST00000029046|mus_mus|mus_mus_mus_hu_True|48_108 (ssRNA)
RNA: GGGAGUUCUACAGUCCGACGAUCGUUGUUGCCAUCACAAGUGAUGAUACAAUCUGGCUUGGCCAUUGCGCCCAUUUUUCGCAAAGCCAGUCCUACUCCUAGCUCCUUCAUGUAUUCAUCAAAGCCUUUGCUGUCCACCAGGCGCAACAGAGGAUUGAGCAUCA
B14: 179075906_179076026_4327_3pUTR_ENSG00000143322_ENST00000408940|human|control|control (ssRNA)
RNA: GGGAGUUCUACAGUCCGACGAUCAGUAUGCAGGGGAACUGUAUCAGAACAGGAUUCAUUCCUUUGUGAGAACCUGUAGGGACUACUAUUUUCAAAAUCAACACUGGUUAAUGCUCUGAAUGCUACCAGGAAUAAAGGAAGACACAACAGAGGAUUGAGCAUCA
B15: 134020440_134020560_2516_3pUTR_ENSG00000166086_ENST00000529443|human|control|control (ssRNA)
RNA: GGGAGUUCUACAGUCCGACGAUCAUUAAACAAACUUAAAAAAAAAAAAUAGCAUUGGGGGCCCUAUUUUGUGAGCCAUCCAUAACCAAAAAGAGGUCUGUUACAGGAGCCCAAAGCUGGGACGCUACAUGGAAGACACCAGUGCAACAGAGGAUUGAGCAUCA
B16: 115631502_115631622_1917_3pUTR_ENSG00000148158_ENST00000374232|human|control|control (ssRNA)
RNA: GGGAGUUCUACAGUCCGACGAUCCACCAAUGCCUCCUAGGCCAAGACGAGUCAAUGCCCACAGAGGCCAAUUCCAGAGGGGCCAGGUUUCCACAGAAAGCAGCAGCUGCCUUCUGUUCCUGCCUCCUCCUCAUCCUUGAAAAGCAACAGAGGAUUGAGCAUCA
B17: chr2:119791414:119791415:+_ENSMUSG00000033943_ENSMUST00000110774|mus_mus|motif|central (ssRNA)
RNA: GGGAGUUCUACAGUCCGACGAUCUCCUACUUUACCAGAAAGCUUAGGUUUUUAAUUAUGACUGAAAGGGUAAGGGAAGAACGGUUCUGGAUAUGAAACAGUCUGCUGAAUGACAAAAUCCCUUCACUUUGGUAUUCCAUAAUACAACAGAGGAUUGAGCAUCA
B18: 215768714_215775229_1188_CDS_ENSG00000136636_ENST00000259154|human|control|control (ssRNA)
RNA: GGGAGUUCUACAGUCCGACGAUCUAUAGGAACAACAUCUUGAACCUGCCAGUGCUGAGUGACAGCAUUCCACACUCCCACUUUCCCUGUAUGACUCGUGGCCACCAACUGGUUACCAAUAAAGAAGAGAGCAUCUACAGGAACCAACAGAGGAUUGAGCAUCA
B19: chr1:163112212:163112213:-_ENSG00000143248_ENST00000313961|hu_hu|hu_hu_hu_mus_False|28_108 (ssRNA)
RNA: GGGAGUUCUACAGUCCGACGAUCUUUAUUUAUCCAGAAGAGUGAGUUACAUACUAGGCAAAGUAUUGGAUACAAUAAUCAGGAAACAAACACUAUUGGUCCAGAAUUUAAAAUAUAAUGAGCGAAGUGCUGGCACAGGACUUACAACAGAGGAUUGAGCAUCA
B20: chr7:151048522:151048523:+_ENSG00000013374_ENST00000566856|hu_mus|hu_hu_hu_mus_True|48_68 (ssRNA)
RNA: GGGAGUUCUACAGUCCGACGAUCCUGUUUCUUAUUUAUUACGAUCUUGAUGUAAUUUUCUUGAAAUCCAAAGGUUUCAGCUAUUUGGGACCUCAGUUCUCUACCAGUGACAUGCAAGCGGGUCUCCAACAAGCUUUUCUUAUCCAACAGAGGAUUGAGCAUCA
B21: chr3:139075817:139075818:+_ENSG00000175110_ENST00000310776|hu_hu|motif|central (ssRNA)
RNA: GGGAGUUCUACAGUCCGACGAUCUUAGGAAGCUGCAGAAUGGCGACUGAGUGCUUCUUGAUAAGUCUGCAGUGUUAGUUCGGUAUAGGCUCCCUUCUGUGCUUCUGUUUUUGCAAAGACCUUGAUUAAAUUUAUUCCCUCAGCCAACAGAGGAUUGAGCAUCA
B22: chrX:98862621:98862622:+_ENSMUSG00000034160_ENSMUST00000044475|mus_hu|mus_mus_mus_hu_False|38_68 (ssRNA)
RNA: GGGAGUUCUACAGUCCGACGAUCCUGCAUCUCCUUUAGAGUGUUUCCCAUAUUAGAGUAGGCAUCAGCAAAUGUAGGACUGAUUCGAAUAGCCUCCUUAUAGUGCAUCAGAGCUUCCUGCAGUUUUCCCUGCUGCUGCAGUACCAACAGAGGAUUGAGCAUCA

Molecular target: T1, UNK ZnF1-3
Test: nsRBNS (natural sequence RNA bind-n-seq); RBNS binding buffer (assumed for nsRBNS): 25 mM Tris pH 7.5, 150 mM KCl, 3 mM MgCl2, 0.01% Triton X-100, 500 ug/ml BSA, 20 U/ml SUPERase-In, 4 C; UNK is unkempt and MSI1 is Musashi-1; names of the RNAs are library labels; protein concentration not given here; high values mean tight binding

| Binder | binding signal |
| --- | --- |
| B1 | 0.568 enrichment R |
| B2 | 0.999 enrichment R |
| B3 | 1.14 enrichment R |
| B4 | 2.75 enrichment R |
| B5 | 2.31 enrichment R |
| B6 | 0.727 enrichment R |
| B7 | 1.15 enrichment R |
| B8 | 1.24 enrichment R |
| B9 | 0.711 enrichment R |
| B10 | 0.424 enrichment R |
| B11 | 2.09 enrichment R |
| B12 | 1.42 enrichment R |
| B13 | 0.619 enrichment R |
| B14 | 1.36 enrichment R |
| B15 | 3.05 enrichment R |
| B16 | 0.411 enrichment R |
| B17 | 1.31 enrichment R |
| B18 | 1.48 enrichment R |
| B19 | 2.74 enrichment R |
| B20 | 0.581 enrichment R |
| B21 | 0.849 enrichment R |
| B22 | 1.2 enrichment R |
